In PubChem BioAssay AID938 (National Center for Advancing Translational Sciences (NCATS), 2007):
Out of some 73,000 compounds screened, about 1,800 (2.5%) were called active. Inconclusive means that the source gave no clear call. Such entries were picked first, then a sample of the others. The call rests on the fitted dose curve; in most records, active means well fitted activation curve with a large enough effect; inconclusive means small, poorly fitted or top-dose-only effect; inactive means no such curve, though single readings can be large or run the other way. Potencies of inconclusive entries are left out as doubtful fits.

experiment: qHTS Assay for Agonists of the Thyroid Stimulating Hormone Receptor: Activators of Intracellular cAMP Concentrations in Parental HEK 293; conditions: parental HEK293 CNG cAMP sensor, membrane potential fluorescence; activation: at 57.1 µM (top of the series) unless noted; further: nearly all actives have a fitted effect of over 55% in size; on activation: % of control where 0% means no effect
How it was run: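 Counterscreen for endogenous-receptor signalling: CNG-channel HEK 293 cells report cAMP rise by membrane depolarization. After 60 min dye equilibration with 100 uM RO 20-1724, compounds incubated 30 min before bottom-read fluorescence at 590 nm.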
Potency means the concentration at half of the fitted maximal effect; tags describe the fitted curve by direction and shape.

| Compound | Potency | activation |
| --- | --- | --- |
| Cc1cccc(OCC(=O)OCC(=O)c2c(N)n(C)c(=O)n(C)c2=O)c1 | inactive |  |
| CCCc1nc2sc3ccccc3c(=O)c2c(=O)n1Cc1ccco1 | inconclusive [activator, partial curve] |  |
| S=c1[nH]nc(COc2ccccc2)n1C1CCCCC1 | inconclusive [activator, single point] |  |
| CCC(C)N1C(=O)c2ccccc2C1C(=O)NC1CCCCCC1 (stereo not drawn) | inconclusive [activator, partial curve] |  |
| c1nnc(NCNc2nncs2)s1 | inconclusive [activator, single point] |  |
| COC(=O)c1sc2nc3c(cc2c1N)COC(C)(C)C3 | inactive |  |
| CCCN(c1ccc(OCC)cc1)c1ncnc2nc[nH]c12 | inconclusive [activator, partial curve] |  |
| O=C1/C(=C/c2ccccc2)[C@@H](NC2CCCCC2)c2ccccc21 |  | inactive: 17.9% [at 11.4 µM] |
| COc1cc(OC)cc(-c2cc3nc4c(c(N5CCN(c6cnccn6)CC5)n3n2)CCCC4)c1 | inactive |  |
| CS(=O)(=O)N1CCC2(CCCN(C(=O)Nc3ccccc3)C2)CC1 | inactive |  |
| Cc1ccc(N2CC(c3nc4ccccc4n3C)CC2=O)cc1C (stereo not drawn) | inconclusive [activator, single point] |  |
| O=C(Nc1nnc(C2CC2)o1)c1ccc(S(=O)(=O)N2CCCc3ccccc32)cc1 | inconclusive [activator, single point] |  |
| CCC1Oc2ccc(C)cc2N(CC(=O)N2CCN(c3ccc(F)cc3)CC2)C1=O (stereo not drawn) | inconclusive [activator, partial curve] |  |
| CCCCOC(=O)Nc1nc(CC(=O)OCC)cs1 | inconclusive [activator, partial curve] |  |
| COC(=O)c1c(NC(=O)c2ccco2)sc(C)c1C | inactive |  |
| CCCC(c1nnnn1C1CCCC1)N1CCN(C(=O)c2ccco2)CC1 (stereo not drawn) | active: 15.8 µM |  |
| COc1ccc(NC(=O)CSc2nc3ccccc3c(=O)n2CCC(=O)N2CCCCC2)cc1 | inconclusive [activator, single point] |  |
| O=C(Cn1nc(C(F)(F)F)c2c1CCC2)NC1CCCCC1 | inconclusive [activator, full curve] |  |
| CC(=O)N1CCCc2cc(S(=O)(=O)N(C)Cc3ccccc3)ccc21 | inactive |  |
| Cc1ccc2c(c1)c1c3n2CCN(C(=O)C2CC2)C3CCC1 (stereo not drawn) | inconclusive [activator, single point] |  |
| CCOc1ccc(C(c2nnnn2Cc2ccccc2)N2CCN(C(=O)c3ccco3)CC2)cc1 (stereo not drawn) | inconclusive [activator, partial curve] |  |
| COc1ccc(CCN2C(=O)CC(N3CCN(S(=O)(=O)c4ccccc4)CC3)C2=O)cc1 (stereo not drawn) | inconclusive [activator, full curve, poor fit] |  |
| CCOc1cccc(-c2nnc3sc(COc4ccc(C)cc4)nn23)c1 | active: 25.1 µM |  |
| COc1ccc(Cl)cc1C(=O)Nc1ccccc1N1CCN(C(=O)C(C)C)CC1 | inactive |  |
| CC1CCN(CC(=O)Nc2sc3c(c2C#N)CCC3)CC1 | active: 7.94 µM |  |

| Compound | Potency | activation |
| --- | --- | --- |
| CC(=O)Nc1cc(NC(=O)CCCC(=O)O)ccc1Cl | inactive |  |
| O=C(Nc1ccc(N2CCOCC2)c(Cl)c1)C1CCCCC1 | active: 25.1 µM |  |
| [O-][n+]1onc2c1CCC1N(O)C(c3ccccc3)CC21O (stereo not drawn) | inactive |  |
| O=C(Nc1ccc(F)cc1)N(CCCN1CCOCC1)Cc1cc2cc3c(cc2[nH]c1=O)OCCO3 | inconclusive [activator, single point] |  |
| CC1CCCCN1C(=O)Nc1cccc(Cl)c1 (stereo not drawn) | inconclusive [activator, single point] |  |
| O=C(NCc1ccccc1)c1c(F)c(F)c(F)c(F)c1F | inconclusive [activator, single point] |  |
| O=C(O)c1ccc(NC(=O)c2cccs2)cc1 | inconclusive [activator, single point] |  |
| O=C(CSc1ncn(-c2ccccc2)n1)Nc1ccc(Br)cn1 | inconclusive [activator, single point] |  |
| Cc1cccc(-c2nc(CS(=O)CC(=O)NCC3CCCO3)c(C)o2)c1 (stereo not drawn) | inconclusive [activator, single point] |  |
| Cc1occc1-c1nnc(SCC(=O)Nc2ccccc2)n1CCc1ccccc1 | inconclusive [activator, single point] |  |
| Cn1c(=O)c2c(nc(Br)n2CCc2ccccc2)n(C)c1=O | inconclusive [activator, partial curve] |  |
| COC(=O)[C@@]1(Cc2ccc(OC)cc2)[C@H]2c3cc(C(=O)N(C)C)n(Cc4cc(F)c(F)c(F)c4)c3C[C@H]2CN1C(=O)c1ccccc1 | active: 3.98 µM |  |
| COc1ccc(NC(=O)c2cccc(NC(=O)c3ccco3)c2)c(OC)c1 | inconclusive [activator, single point] |  |
| COC(=O)c1ccc(CSc2nc(-c3ccco3)cc(C(F)(F)F)n2)o1 | inconclusive [activator, single point] |  |
| CCOC(=O)Nc1ccc(NC(=O)c2c(OC)cccc2OC)cc1 | inconclusive [activator, single point] |  |
| CCOC(=O)c1coc(CNC(=O)c2c(C)oc3c2CCCC3)c1 | inconclusive [activator, single point] |  |
| CCc1c(C)nc(SCC(=O)CC(=O)OC(C)C)c(C#N)c1C | inconclusive [activator, partial curve] |  |
| COC(=O)c1ccc(Cn2cnc3c(cnn3-c3ccc(Cl)cc3)c2=O)o1 | inconclusive [activator, partial curve] |  |
| COCCNc1ncnc2ccc(-c3ccccc3C(F)(F)F)cc12 | inconclusive [activator, full curve] |  |
| CCOC(=O)c1c(COc2ccccc2)oc2ccc(O)cc12 | inconclusive [activator, partial curve] |  |
| COc1ccccc1Nc1cc(C(=O)NCCCN2CCOCC2)c2ccccc2n1 | inconclusive [activator, single point] |  |
| CC(C)NC[C@@H](O)COc1ccc(COCCOC(C)C)cc1 | inactive |  |
| Cc1nnc(SCc2cnc(-c3ccc(C(C)C)cc3)s2)n1C | inconclusive [activator, single point] |  |
| Cc1c(C(=O)OCCN2CCCCC2)oc2ccccc12 | inactive |  |
| COc1ccc(OCc2ccc(-c3nc4ccccc4c(=O)n3N)o2)cc1 | inconclusive [activator, partial curve] |  |

| Compound | Potency | activation |
| --- | --- | --- |
| CCCC[C@@H]1C[C@H]1C(NC(=O)c1cccs1)c1ccc(Cl)cc1 (stereo partly drawn) | inconclusive [activator, full curve] |  |
| COc1cccc(Cn2c(=O)c(-c3ccc(F)cc3)nc3cnc(N(C)C)nc32)c1 | inactive |  |
| COc1ccc(C(=O)N2CCC[C@@]3(CCN(c4ccccc4)C3)C2)cc1 | active: 12.6 µM |  |
| COc1ccc2[nH]cc(CCNc3ncncc3-c3ccccc3OC)c2c1 | active: 3.16 µM |  |
| O=C1CC(N2CCC(c3nc4ccccc4[nH]3)CC2)C(=O)N1Cc1ccccc1 (stereo not drawn) | inactive |  |
| CCOc1ccccc1Oc1c(C)oc2cc(OC(=O)N3CCOCC3)ccc2c1=O | inconclusive [activator, single point] |  |
| O=C(c1cc2ccccc2oc1=O)N1CCN(c2ccc(N3CCOCC3)nn2)CC1 | inactive |  |
| CCCc1cc(C(N)=O)c(NC(=O)C2CCCO2)s1 (stereo not drawn) | inconclusive [activator, single point] |  |
| CC(=O)OC1CC2(C)C(=O)CCC2C2CCc3cc(O)ccc3C12 (stereo not drawn) | inconclusive [activator, single point] |  |
| COc1ccc(OC2C(O)COC2/C=C/C#Cc2ccccc2)cc1 (stereo not drawn) |  | inactive: 4.17% [at 11.4 µM] |
| CCCNC(=O)OC[C@@H]1O[C@H](c2ccccc2)C=C[C@@H]1Oc1ccc(OC)cc1 |  | inactive: 1.38% [at 11.4 µM] |
| C=CCn1c(SCc2cc(=O)n3ccsc3n2)nc2sc(C)c(C)c2c1=O | inactive |  |
| CCCCOC(=O)C1=C(C)Nc2ncnn2C1c1cccc(OC)c1 (stereo not drawn) | inactive |  |
| CC(C)CSc1nc2c(c(=O)[nH]c(=O)n2C)n1CCc1ccccc1 | inconclusive [activator, single point] |  |
| Cc1ccccc1-c1ccc2ncnc(NC3CC3)c2c1 | inconclusive [activator, partial curve] |  |
| CC(=O)OCC1OC(C#Cc2ccccc2)C=CC1O (stereo not drawn) |  | inactive: 3.78% [at 11.4 µM] |
| CSc1nnc2c(n1)OC(c1cccn1C)N(C(C)=O)c1ccccc1-2 (stereo not drawn) | active: 15.8 µM |  |
| CC1(C)Cc2noc(N)c2C(C)(C)N1OC(=O)c1cccs1 | inconclusive [activator, partial curve] |  |
| Oc1ccccc1C(=S)N1CCCCC1 | inactive |  |
| CCOc1ccccc1NC(=O)Cn1nnc(C(=O)Nc2ccc(C)cc2)c1N | inconclusive [activator, single point] |  |
| CCOc1ccc(-c2nnc3sc(COc4ccc(C)cc4)nn23)cc1 | active: 20 µM |  |
| CS(=O)(=O)Nc1cccc(-c2ccc3ncnc(Nc4ccccc4)c3c2)c1 | inconclusive [activator, partial curve] |  |
| CCOc1ccc(C(=O)C(c2ccccc2)N2CCOCC2)cc1 (stereo not drawn) | inconclusive [activator, partial curve] |  |
